According to PubChem BioAssay AID1345082 (National Center for Advancing Translational Sciences (NCATS), 2018):
Values joined by “and” are separate entries in the source; they are usually repeats but may differ in a detail not shown here. Equal entries are not always repeated. The campaign covered roughly 94,000 compounds. About 4,000 (4.3%) were called active. The shares of active, inactive and inconclusive entries below differ from those in the screen. Calls follow the shape of the dose curve; as a rule, active = well fitted inhibition curve with a large enough effect; inconclusive = small, poorly fitted or top-dose-only effect; inactive = no such curve, though single readings can be large or run the other way. A potency beside an inconclusive call is a rough fit, not a confirmed value.

assay: Cytotoxic Profiling in NIH 3T3 Cell Line of Diverse Libraries Using Quantitative High-Throughput Screening; details: NIH 3T3 viability, CellTiter-Glo ATP luminescence, 48-72 h; series mostly up to 96.7 µM; also: nearly all actives have a fitted effect of over 55% in size
Procedure, shortened: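 NIH 3T3 cells at 400 cells/well received 23 nL of compound by pintool and were incubated 48 or 72 h at 37 °C. Viability was read as ATP-coupled CellTiter-Glo luminescence.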
Potency is read from the fitted curve at half-maximal effect; tags tell the direction and shape of the fitted curve.

Compound	Potency
COc1ccccc1Nc1ccnc(N2CCC(NC(=O)NC(C)C)CC2)n1	inactive
COCCOc1ccc(-c2noc([C@@H]3CCCN3C3CCC3)n2)cn1	inconclusive: 100 µM [inhibitor, partial curve, poor fit]
O=C(NCc1cccc(Cl)c1)c1noc(-c2ccc3c(c2)OCO3)n1	inconclusive: 44.7 µM [inhibitor, partial curve, poor fit]
O=C(c1cc2c(s1)CCC(C(=O)N1CCN(C3CCCCC3)CC1)C2)N1CCCC1 (centres undefined)	inconclusive: 50.1 µM [inhibitor, partial curve, poor fit]
O=C(c1ccc(Cl)cc1)N1CCC(n2cc(-c3ccccc3)[nH]c2=O)CC1	inconclusive: 50.1 µM [inhibitor, partial curve, poor fit]
O=C(NCC(F)(F)F)C1CN(c2ccccc2)C(=O)N1 (centres undefined)	inactive
COCCOC1CCN(S(=O)(=O)c2ccc(OC)cc2)CC1	inactive
O=C1NCCCCCCN(S(=O)(=O)c2ccc3c(c2)OCCO3)[C@H]2CCC[C@@H]12	inconclusive: 56.2 µM [inhibitor, partial curve, poor fit]
COc1ccc(NC2CCCN(C(=O)c3ccc(S(N)(=O)=O)cc3)C2)cc1 (centres undefined)	inactive
COc1cccc(Nc2ccc3c(n2)C(C)(C(=O)NC2CCC(O)CC2)CN(C)C3)c1 (centres undefined)	inactive
Cc1ccccc1C(=O)N1C[C@@H](F)C[C@H]1C(=O)N1CCCCC1	inactive
O=C(c1cccc(Cl)c1)N1CCN(c2ccc3nnc(-c4ccccc4)n3n2)CC1	inconclusive: 44.7 µM [inhibitor, partial curve, poor fit]
O=C(NCCc1ccc(F)cc1)C1CCCN(Cc2cccc(-c3cccs3)c2)C1 (centres undefined)	inconclusive: 39.8 µM [inhibitor, partial curve, poor fit] and inconclusive: 44.7 µM [inhibitor, partial curve, poor fit]
Cn1cccc1CNC(=O)C1c2ccccc2C(=O)N(C2CCCCC2)C12CCCC2 (centres undefined)	inconclusive: 50.1 µM [inhibitor, partial curve, poor fit]
O=C(CCC1CCN(S(=O)(=O)c2ccccc2)CC1)Nc1ccccc1	inconclusive: 56.2 µM [inhibitor, partial curve, poor fit]
CS(=O)(=O)N1CC[C@H](c2nc3cc(Cl)ccc3o2)C1	inactive
O=C1NC2(CCN(Cc3ccsc3)CC2)COc2ccccc21	inconclusive: 56.2 µM [inhibitor, partial curve, poor fit]
CCc1nc(CC)n2ccn(Cc3ccccn3)c(=O)c12	inactive
Cc1cccc2c1O[C@H]1[C@H](C(N)=O)CN(C(=O)OCC(C)(C)C)[C@@H]21	inconclusive: 50.1 µM [inhibitor, partial curve, poor fit]
Cc1nc(-c2ccc(F)cc2)n(CC(=O)Nc2ccc(F)cc2)c(=O)c1CCO	inconclusive: 50.1 µM [inhibitor, partial curve, poor fit]
CC(C)=CCn1c(-c2cc(C)oc2C)cn2cc(C(=O)N(C)CC(C)C)nc2c1=O	inconclusive: 50.1 µM [inhibitor, partial curve, poor fit]
CN(C)c1cccc(C(=O)Nc2ncc(-c3cccc(F)c3)c3c2OCC3)c1	inconclusive: 10 µM [inhibitor, full curve, poor fit]

Compound	Potency
COCC1CN(Cc2ccccc2C(F)(F)F)CC12CCNCC2 (centres undefined)	inconclusive: 50.1 µM [inhibitor, partial curve, poor fit]
COc1cccc(-c2ccc(CN3CCCC(NC(=O)C4CCCC4)C3)cc2)c1 (centres undefined)	active: 35.5 µM
COc1ccc(N(C)C(=O)c2c(C)oc3c2CN(Cc2ccc(F)cc2)CC3)cc1	inconclusive: 44.7 µM [inhibitor, partial curve, poor fit]
COC[C@@H]1CN(c2ncccn2)C[C@H]1C(=O)N(C)Cc1cn(C)nc1C	inactive
CCCCc1ccc(NC(=O)CN2C(=O)NC(c3ccc(Cl)cc3)C3=C2COC3=O)cc1 (centres undefined)	active: 20 µM
COCCN1Cc2nc(OCc3cccnc3)ccc2OCC1=O	inconclusive: 70.8 µM [inhibitor, partial curve, poor fit]
O=C1OC[C@@H]2CCN(C3CCCC3)Cc3ccc(F)cc3N12	inactive
CCCC(=O)N1CCc2cn(C)c3cccc(c23)C1	inactive
CN(Cc1ccc(F)cc1)c1ccc2ncc(Nc3cccc(N[S+](C)(=O)[O-])c3)n2n1	active: 31.6 µM
Cc1noc([C@H]2CCN(C(=O)Cc3c[nH]c4ccccc34)C[C@H]2NC(=O)C2CC2)n1	inconclusive: 79.4 µM [inhibitor, partial curve, poor fit]
O=C1c2c(nc(CNc3cccnc3)n2Cc2ccccc2)NCCN1Cc1ccccc1	inconclusive: 89.1 µM [inhibitor, partial curve]
CN1CCCCCC(O)c2cc(C(=O)NCCc3ccncc3)ccc21 (centres undefined)	inconclusive: 44.7 µM [inhibitor, partial curve, poor fit]
CCOc1ccc2c(n1)CCN(C(=O)Nc1ccc(C)c(C)c1)C2	inconclusive: 31.6 µM [inhibitor, partial curve, poor fit]
CN(CC#N)C(=O)c1cc(-c2ccccc2C(F)(F)F)nc2c1cnn2C	inactive
O=C(Cc1cccc(Cl)c1)NC1CN(c2ccnc3ccnn23)C1	inconclusive: 31.6 µM [inhibitor, partial curve, poor fit]
COc1ccc(N2CC(COc3ccccc3)Oc3ncccc3[S+]2(=O)[O-])cc1 (centres undefined)	inconclusive: 31.6 µM [inhibitor, partial curve, poor fit]
O=C(NCc1ccc(F)cc1)c1cc2c(s1)CCN(C(=O)c1ccc(F)cc1)C2	inconclusive: 25.1 µM [inhibitor, partial curve]
Cc1ccc(C(=O)N2CCCC3(C2)NC(=O)N(Cc2ccc(Cl)cc2)C3=O)cc1 (centres undefined)	inconclusive: 50.1 µM [inhibitor, partial curve, poor fit]
CC(C)Oc1ccc(CNC(=O)c2noc(-c3ccc(F)cc3)n2)cc1	inconclusive: 44.7 µM [inhibitor, partial curve, poor fit]
CC(=O)NC1CCN(Cc2cccc(-c3cccc(C)c3)c2)CC1	active: 100 µM
COCCNC(=O)[C@@H]1C[C@@H](O)CN1C1CCN(C(=O)c2ccc(C(C)C)cc2)CC1	inactive
COc1ccc(Nc2cc(-c3cccs3)nc3c(C)noc23)cc1OC	active: 44.7 µM

Compound	Potency
O=C(NCC1CN(C(=O)Nc2ccccc2)CC12CCOCC2)N1CCCC1 (centres undefined)	inactive
O=C(c1cccc(OC(F)(F)F)c1)N1CCN(c2cc(-c3cccs3)[nH]n2)CC1	inconclusive: 7.94 µM [inhibitor, full curve, poor fit]
O=C(c1cccc(F)c1)N1CC(Oc2ccc(-c3nc(-c4ccccc4)no3)cc2)C1	inactive
CNC(=O)CN1CCCC(N2CCN(c3cccc(C(F)(F)F)c3)CC2)C1 (centres undefined)	inactive
COC(=O)C1=C(C)N=C2SC=C(CC(=O)Nc3cc(C)cc(C)c3)N2C1c1ccccc1OC (centres undefined)	inconclusive: 70.8 µM [inhibitor, partial curve, poor fit]
CSc1ccc(-c2cccc(C(=O)NCC(=O)NCc3ccc(C(F)(F)F)cc3)c2)cc1	inconclusive: 50.1 µM [inhibitor, single point]
O=C(N[C@H]1CCN2C(=O)N(c3ccc(OC(F)(F)F)cc3)C(=O)[C@@H]2C1)c1cnccn1	inconclusive: 79.4 µM [inhibitor, partial curve]
COc1ccc2c3c1CN(C(=O)N(C)C)CC3=CC(C)(C)CO2	inactive
O=C(Cc1ccccc1)N1CCC2(CC1)CN(Cc1ccccc1)CC2CO (centres undefined)	inconclusive: 44.7 µM [inhibitor, partial curve, poor fit]
Cc1ccc(C)c(S(=O)(=O)N2CC(c3nc(Cc4ccccc4)no3)C2)c1	inconclusive: 50.1 µM [inhibitor, partial curve, poor fit]
Nc1nc(C2CC(O)C2)cc(N2CCCN(C(=O)c3ccoc3)CC2)n1 (centres undefined)	inactive
O=C(c1ccccc1F)N1CCCCCC1c1nnc(-c2ccccc2)o1 (centres undefined)	inconclusive: 70.8 µM [inhibitor, partial curve, poor fit]
COc1cc(-c2onc(C)c2C(=O)NCCC(c2ccccc2)c2ccccc2)cc(OC)c1OC	inconclusive: 39.8 µM [inhibitor, partial curve, poor fit]
COc1cccc(-c2c(C(=O)NCc3ccccn3)nc3sccn23)c1	inconclusive: 39.8 µM [inhibitor, partial curve, poor fit]
Cc1cccc(C(=O)N2CCN(c3cc(C(F)(F)F)ncn3)CC2)c1	inconclusive: 44.7 µM [inhibitor, partial curve, poor fit]
O=C(CCc1nc2ccccc2s1)N1CCC(c2noc(-c3ccccc3)n2)C1 (centres undefined)	inconclusive: 31.6 µM [inhibitor, partial curve]
COCc1cc(NCc2cccnc2N(C)Cc2ccccc2)ncn1	inconclusive: 63.1 µM [inhibitor, partial curve, poor fit]
COc1ccc(CCNC(=O)[C@@H]2CCCN2c2nccc(Nc3ccccc3Cl)n2)cc1	inactive
COCCCn1c(=O)c(C(=O)N2CCN(C(=O)c3ccccc3C)CC2)nc2cccnc21	inactive
CN(Cc1cccnc1)c1nc2c(c(=O)[nH]1)CCN(Cc1ccc(Br)o1)CC2	inconclusive: 44.7 µM [inhibitor, partial curve, poor fit]
